The values below come from paper PMC4336329 (PLoS ONE, 2015).

Structures are written as SMILES. Out of some 310,000 compounds screened, about 14,000 (4.5%) showed an effect of 50% or more. Effects have a minus sign here. Some of the results follow.
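Further: peak tail current of the secondary pulse compared with the same well before compound.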

For the assay, the target named is human ether-à-go-go-related gene (hERG) potassium channel (human, UniProt Q12809). As to the kind of experiment: primary screen, population patch clamp on CHO cells stably expressing hERG.
Chain of human ether-à-go-go-related gene (hERG) potassium channel (Q12809 whole entry, looked up): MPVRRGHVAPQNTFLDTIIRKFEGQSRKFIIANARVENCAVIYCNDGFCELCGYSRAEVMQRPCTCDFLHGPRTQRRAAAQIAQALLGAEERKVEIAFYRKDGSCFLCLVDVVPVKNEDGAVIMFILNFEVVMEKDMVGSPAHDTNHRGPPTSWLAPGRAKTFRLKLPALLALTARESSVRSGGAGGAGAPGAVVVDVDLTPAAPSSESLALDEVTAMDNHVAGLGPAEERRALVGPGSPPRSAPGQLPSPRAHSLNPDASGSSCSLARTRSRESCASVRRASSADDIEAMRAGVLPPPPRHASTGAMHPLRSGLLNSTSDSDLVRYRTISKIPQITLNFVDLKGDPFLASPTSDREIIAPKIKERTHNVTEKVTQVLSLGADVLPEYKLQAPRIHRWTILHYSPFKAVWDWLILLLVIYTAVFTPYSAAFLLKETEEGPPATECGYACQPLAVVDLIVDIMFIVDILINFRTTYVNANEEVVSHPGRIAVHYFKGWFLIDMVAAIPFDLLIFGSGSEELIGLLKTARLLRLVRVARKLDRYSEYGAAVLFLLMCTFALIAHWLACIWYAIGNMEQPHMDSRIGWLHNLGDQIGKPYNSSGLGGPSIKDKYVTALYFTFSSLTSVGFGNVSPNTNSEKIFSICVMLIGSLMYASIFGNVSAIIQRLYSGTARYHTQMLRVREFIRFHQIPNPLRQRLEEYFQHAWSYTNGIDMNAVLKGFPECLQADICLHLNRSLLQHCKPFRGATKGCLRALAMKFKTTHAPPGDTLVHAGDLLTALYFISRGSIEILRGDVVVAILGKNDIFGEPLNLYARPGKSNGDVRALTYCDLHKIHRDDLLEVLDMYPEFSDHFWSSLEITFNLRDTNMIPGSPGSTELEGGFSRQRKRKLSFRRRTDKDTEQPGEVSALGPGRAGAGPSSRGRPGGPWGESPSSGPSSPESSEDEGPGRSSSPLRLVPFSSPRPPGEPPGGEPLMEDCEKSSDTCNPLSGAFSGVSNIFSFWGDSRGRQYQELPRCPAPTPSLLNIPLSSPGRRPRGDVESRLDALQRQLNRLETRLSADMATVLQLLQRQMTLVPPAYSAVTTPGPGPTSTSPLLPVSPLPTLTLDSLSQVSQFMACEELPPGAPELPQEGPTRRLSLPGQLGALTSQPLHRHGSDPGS
`C/C=C(\C)CN1CCC(Oc2cccc(C(=O)NCc3ccccn3)c2)CC1`: the “hERG current change (%, negative = inhibition) at 10uM” value is given as -4.59%. With `COc1ccc(NS(=O)(=O)c2ccc3c(c2)NC(=O)C(C)S3)cc1` (stereo not drawn) the figure was 6.53%; with `Cc1ccc(S(=O)(=O)N2CCC(C(=O)NNC(=O)c3cccnc3)CC2)cc1`, 2.37%. As for `CS(=O)(=O)N1CCN(S(=O)(=O)c2ccccc2[N+](=O)[O-])CC1`, the figure is 22.3%; as for `COc1ccccc1/C=C/C(=O)N1CCN(S(=O)(=O)c2cc(C)ccc2C)CC1`, 2.88%; as for `S=c1[nH]nc(C2CCCCC2)n1/N=C/c1cccs1`, 11%.

With `Cc1cc(F)ccc1Oc1cc(NN2CCCCC2)c([N+](=O)[O-])cc1[N+](=O)[O-]`, the “hERG current change (%, negative = inhibition) at 10uM” value is -1.11%. As to `Cc1ccc(-n2ncc3c(=O)n(CC(=O)N(C)C)cnc32)cc1`, the “hERG current change (%, negative = inhibition) at 10uM” value is recorded as 5.94%.

With `C=CCN1C(=O)/C(=C\c2ccco2)C(C(=O)OC)=C1C`, the “hERG current change (%, negative = inhibition) at 10uM” value is given as -10.9%. With `CC(=O)Nc1ccc(C(=O)NNC(=O)CCc2ccccc2)cc1` the figure was 19.6%; with `Cc1ccnc(N2C(=O)c3ccccc3C2O)c1` (stereo not drawn), -3.51%.

Regarding `CCCN1C(=O)c2ccccc2NC1c1cc(OC)c(OC)c(OC)c1` (stereo not drawn), the “hERG current change (%, negative = inhibition) at 10uM” value was -3.01%. As for `O=C(O)c1ccc(C(=O)Nc2cccc(NC(=O)C3CCCO3)c2)cc1` (stereo not drawn), the “hERG current change (%, negative = inhibition) at 10uM” value is reported as -21.3%. On to `Cc1cc(C)c(C)c(S(=O)(=O)N2CCC(C(=O)Nc3ccncc3)CC2)c1C`, for which the “hERG current change (%, negative = inhibition) at 10uM” value was -34.2%.

`CCOC(=O)[C@H]1[C@H]2COc3ccc(OC)cc3[C@@H]2N2C(=O)[C@H](C)NC(=O)[C@@]12C`: the “hERG current change (%, negative = inhibition) at 10uM” value stood at 15.3%.

For `COc1ccc(-c2oc3c(CC=C(C)C)c(O[C@@H]4O[C@H](CO)[C@@H](O)[C@H](O)[C@H]4O)cc(O)c3c(=O)c2O[C@@H]2O[C@@H](C)[C@H](O)[C@@H](O)[C@H]2O)cc1`, the “hERG current change (%, negative = inhibition) at 10uM” value is -0.85%. As for `CCN(CC)CCNC(=O)c1cc2c(=O)n(C)c3ccccc3c2s1`, the figure is -0.204%. With `O=C1c2ccccc2C(=O)N1Cc1ccco1` the figure was -3.32%; with `COc1ccc2oc(C(=O)NCc3ccccc3CN3CCCC3)c(C)c2c1`, -66.1%; with `COc1ccc(CN2C(=O)NC(=O)/C(=C\c3cccc(OC)c3OC)C2=O)cc1`, 10.9%. As for `C=CCNc1nc(C2(C)CC3(CC(C)OC3=O)C(=O)O2)cs1` (stereo not drawn), the figure is -4.86%; as for `Cc1cc(C)cc(NC(=O)C2CCCN2C(=O)NC2CCCCC2)c1` (stereo not drawn), 15.2%; as for `CCOc1ccc(S(=O)(=O)N2CCCC(C(=O)N3CCC(C(N)=O)CC3)C2)cc1Cl` (stereo not drawn), 4.76%. Turning to `CC(=O)Nc1ccc(S(=O)(=O)N2CCC(C(=O)N[C@@H](Cc3ccccc3)C(=O)O)CC2)cc1`, the “hERG current change (%, negative = inhibition) at 10uM” value came out at 11.1%.

Turning to `OCCNCCCCOc1ccc(F)cc1`, the “hERG current change (%, negative = inhibition) at 10uM” value turned out to be 4.18%. As for `COc1ccc(C2=NNC(c3cccnc3)=Nc3ccc(OC)cc32)cc1`, the figure is -21.4%; as for `O=C(c1ccco1)N1CCN(C(=O)c2cccc3c2C(=O)N(Cc2cccnc2)C3)CC1`, 24.3%. With `CC(=O)NC1=NN(C(C)=O)C2(S1)C(=O)N(C(C)=O)c1ccc(C)cc12` (stereo not drawn) the figure was 18.3%; with `Cc1ccc(Nc2nc(N)nc(CN3CCN(c4ccccc4F)CC3)n2)cc1`, -67.4%; with `COc1ccc(/C=C2\SC(N)=NC2=O)cc1Br`, 10.1%.

Take `CCOC(=O)c1ccc(NC(=O)c2c(N)n(C)c(=O)n(C)c2=O)cc1`: the “hERG current change (%, negative = inhibition) at 10uM” value is -6.23%. As for `Cc1ccc(N=C2NC(=O)/C(=C/C=C/c3ccco3)S2)cc1C`, the figure is 13.2%. With `C=CCc1c(C)nc2c(C(=O)O)cnn2c1C`, the “hERG current change (%, negative = inhibition) at 10uM” value was found to be 8.78%. As for `Cn1cccc1-c1cc(C(=O)N/N=C/C=C/c2ccccc2)[nH]n1`, the figure is -43.2%. As for `CCN(C(=S)NC(=O)CCc1ccccc1)c1ccccc1`, the figure is -3.24%.

As for `Cc1cccc(Cn2c(N3CCN(C)CC3)nc3c2c(=O)n(C)c(=O)n3C)c1`, the “hERG current change (%, negative = inhibition) at 10uM” value is given as -49%.

Consider `CCOC(=O)c1ccc(Nc2cc(C)nc3ncnn23)cc1`, for which the “hERG current change (%, negative = inhibition) at 10uM” value is -15.1%. As for `CCCc1nnc(NS(=O)(=O)c2ccc(OC)cc2)s1`, the figure is 21.3%; as for `O=C(Cc1ccc(Br)cc1)N/N=C/c1ccc(-c2cccc(C(=O)O)c2)o1`, 3.87%; as for `O=C(CSc1ccc(-c2nc3ccccc3[nH]2)cn1)Nc1ccc2c(c1)OCCO2`, 13.9%. With `CC(=O)c1cccc(NC(=S)N2c3ccccc3CC2C)c1` (stereo not drawn) the figure was 12.2%. With `C=C1C(C(=O)Nc2ccc(F)cc2)C1C(=O)Nc1ccc(F)cc1` (stereo not drawn) the figure was 36.8%.

Turning to `O=C1NCC2=C1C(c1ccc(Br)cc1)Nc1ccccc1N2` (stereo not drawn), the “hERG current change (%, negative = inhibition) at 10uM” value is -10.7%. As for `O=c1[nH]c2ccccc2nc1/C=C(\O)C(F)F`, the figure is 6.51%. With `CCCCN1C(Nc2ccccc2)=NC[C@@H]1CC(C)C` the figure was -34.5%; with `Cc1cc(=O)oc2cc(OC(=O)CCN3C(=O)c4ccccc4C3=O)ccc12`, -0.518%; with `O=C(CNC1CC1)Nc1cc(C(F)(F)F)ccc1Cl.O=C(O)C(=O)O`, -0.561%. As for `COc1ccc(N2C(=O)CC(Sc3nccc(C)n3)C2=O)cc1` (stereo not drawn), the figure is -3.04%. On to `C/C=C1/CN2[C@@H]3C4CO[C@@H]3c3c([nH]c5cc(OC)ccc35)[C@@H]2CC14` (stereo partly drawn), for which the “hERG current change (%, negative = inhibition) at 10uM” value is -0.486%. Regarding `CC1CCC(NC(=O)COC(=O)c2ccc3ncsc3c2)CC1` (stereo not drawn), the “hERG current change (%, negative = inhibition) at 10uM” value was found to be 10.2%. As for `Clc1ccc(OCCN2CCOCC2)cc1Cl`, the figure is -3.13%; as for `OCC[n+]1ccc(/C=C/c2c[nH]c3ccccc23)cc1`, 4.13%; as for `CCCc1nc(SCC(=O)Nc2nccs2)c2ccccc2n1`, 10.4%. As for `Cc1sc2ncnc(SCC(=O)NCC3CCCO3)c2c1C` (stereo not drawn), the “hERG current change (%, negative = inhibition) at 10uM” value came to 1.53%. `Cc1ccc(NC(=O)CSc2nc(N)cc(N)n2)cc1S(=O)(=O)N1CCOCC1`: the “hERG current change (%, negative = inhibition) at 10uM” value is 7.71%. Regarding `CC12CCC(=O)N1C(C(=O)Nc1cccc(S(=O)(=O)N3CCCCCC3)c1)CS2` (stereo not drawn), the “hERG current change (%, negative = inhibition) at 10uM” value was -69.8%. As for `COc1ccc(N(CC(=O)NN=C2CCCCCCC2)S(=O)(=O)c2ccccc2)cc1Cl`, the figure is 4.77%; as for `O=C(Nc1ccccc1)Nc1ccc(Cl)c([N+](=O)[O-])c1`, -2.27%. With `O=C(c1cccn2c(=O)c3cc4ccccc4cc3nc12)N1CCN(c2ccccc2)CC1` the figure was -7.73%; with `COc1cc(OC)c(OC)cc1CNCCc1cccc(F)c1.O=C(O)C(=O)O`, -15.2%; with `COc1ccc(NC(=O)CNS(=O)(=O)c2cccs2)c(OC)c1`, -5.54%. As for `COC(=O)CCC(=O)OC1(C)C(=O)C2=CN(C3CC3)C(c3ccc(OC)cc3)=CC2=C(Br)C1=O` (stereo not drawn), the figure is 14.4%; as for `O=C1CNCc2[nH]c3ccccc3c2N1c1ccccc1`, -3.51%. Regarding `CC(C)[C@H](NC(=O)NCCc1ccc(Cl)cc1)C(=O)O`, the “hERG current change (%, negative = inhibition) at 10uM” value came to 5.9%.

For `O=C(Nc1ccnc(-c2cccnc2)n1)c1ccc(Cl)c(Cl)c1`, the “hERG current change (%, negative = inhibition) at 10uM” value is given as -11.5%. As for `Cc1cc(Cl)ccc1OCc1n[nH]c(=S)n1C1CCCCC1`, the figure is 21.1%; as for `Cc1noc(C)c1S(=O)(=O)N(CC(=O)NC(C)c1ccccc1)c1ccc(C(C)C)cc1` (stereo not drawn), 14.5%; as for `CCOC(=O)CCSc1n[nH]c(=S)s1`, 18.1%.

Turning to `O=C(Nc1ccccc1F)c1ccc(CSc2ncccn2)cc1`, the “hERG current change (%, negative = inhibition) at 10uM” value is listed as 13.5%. With `COc1ccc(N/C=C/C(=O)c2ccc(Oc3ncccn3)cc2)cc1` the figure was 3.16%. With `Cc1occc1C(=O)Nc1cc(C(C)(C)C)on1` the figure was -25%.

As to `O=C(N=C1SC2CS(=O)(=O)CC2N1c1ccc(Br)cc1)C1CCCO1` (stereo not drawn), the “hERG current change (%, negative = inhibition) at 10uM” value is 4%. Take `Cc1cc(C)c(NC(=O)CSc2nnc(Cc3cccn3C)n2-c2ccc(F)cc2)c(C)c1`: the “hERG current change (%, negative = inhibition) at 10uM” value is reported as -20.2%. As for `O=C(O)C1CCN(S(=O)(=O)Cc2ccccc2)CC1`, the figure is 11.4%. As for `CCOc1ccc(S(=O)(=O)NCCSCc2ccco2)cc1`, the figure is -20.4%. As for `CC(=O)c1cccc(NC=C2C(=O)OC3(CCCCC3)OC2=O)c1`, the figure is -37.9%.

`Cc1cccc(NC(=S)NCCc2ccc(Cl)cc2)c1C`: the “hERG current change (%, negative = inhibition) at 10uM” value worked out at 14.2%. With `O=C(Cn1ncc2c3ccccc3n(Cc3ccccc3)c2c1=O)NCCN1CCOCC1` the figure was -57%. With `CC(=O)N1CCC(N(CCCOC(C)C)C(=O)Nc2ccc(C)c(C)c2)CC1`, the “hERG current change (%, negative = inhibition) at 10uM” value is listed as -15.8%.

As to `COc1ccc(C(=O)Nc2ccccc2[N+](=O)[O-])cc1S(=O)(=O)N1CCOCC1`, the “hERG current change (%, negative = inhibition) at 10uM” value is listed as 5.04%.

For the compound `Cc1cc2cc(CCNC(=O)c3ccc(Br)o3)c(=O)[nH]c2cc1C`, the “hERG current change (%, negative = inhibition) at 10uM” value is reported as -38.5%. With `COc1cccc(NC(=O)NCCCN2CCN(c3ccc(F)cc3)CC2)c1` the figure was -73.2%; with `Cc1ccc(C)c(OCC(=O)Nc2ccccc2C(=O)N2CCOCC2)c1`, 3.32%. With `COC(=O)c1ccc(S(=O)(=O)N2CCN(C)CC2)n1C` the figure was 15%; with `Cc1ccc(S(=O)(=O)N2CCN(S(=O)(=O)N3CCCCCC3)CC2)cc1`, 20.4%. Take `Cc1ccc(CC2CC(=O)N(c3nc4ccccc4n3C)C2=O)cc1` (stereo not drawn): the “hERG current change (%, negative = inhibition) at 10uM” value is -1.79%. As for `COC(=O)c1c(C)nn(-c2ccc(F)c(Cl)c2)c1-c1cc(C)on1`, the figure is -4.39%.
